B1: PhoQ; a variant is named by its letters at X, in order, P23837 (parent)
chain: MKKLLRLFFPLSLRVRFLLATAAVVLVLSLAYGMVALIGYSVSFDKTTFRLLRGESNLFYTLAKWENNKLHVELPENIDKQSPTMTLIYDENGQLLWAQRDVPWLMKMIQPDWLKSNGFHEIEADVNDTSLLLSGDHSIQQQLQEVREDDDDAEMTHSVAVNVYPATSRMPKLTIVVVDTIPVELKSSYMVWSWFIYVLSANLLLVIPLLWVAAWWSLRPIEALAKEVRELEEHNRELLNPATTRELTSLVRNLNRLLKSERERYDKYRTTLTDLTHSLKTPLXXLQXXLRSLRSEKMSVSDAEPVMLEQISRISQQIGYYLHRASMRGGTLLSRELHPVAPLLDNLTSALNKVYQRKGVNISLDISPEISFVGEQNDFVEVMGNVLDNACKYCLEFVEISARQTDEHLYIVVEDDGPGIPLSKREVIFDRGQRVDTLRPGQGVGLAVAREITEQYEGKIVAGESMLGGARMEVIFGRQHSAPKDE

Some of the results follow.

Here are results for 153 variants from a collection of fitness landscapes (doi:10.1126/science.1257360).

In the assay the parent is B1. The experiment in a line: enrichment ratio after two sorts for PhoP signalling (ratio (wild type AVST 3.29)); higher = more functional. The settings on record: with PhoP (E. coli).
On to EELS, for which the enrichment ratio is at most 0.25.

In the case of KNYW, the enrichment ratio is at most 0.25.

In the case of FYHY, the enrichment ratio is at most 0.25.

HSPE: the enrichment ratio is at most 0.25.

VWHP: the enrichment ratio is at most 0.25.

As to HEFF, the enrichment ratio was at most 0.25.

With FEDP, the enrichment ratio was at most 0.25.

In the case of YMTV, the enrichment ratio was at most 0.25.

Regarding GIPG, the enrichment ratio was at most 0.25.

As for VICV, the enrichment ratio was at most 0.25.

As for TNNQ, the enrichment ratio is at most 0.25.

As to YACI, the enrichment ratio amounted to 0.325.

As to VATE, the enrichment ratio was at most 0.25.

As to QDGT, the enrichment ratio was at most 0.25.

Turning to FSWK, the enrichment ratio was at most 0.25.

Consider PLSP, for which the enrichment ratio was at most 0.25.

Take FLFP: the enrichment ratio was at most 0.25.

For the variant FSNK, the enrichment ratio is at most 0.25.

Consider TKPN, for which the enrichment ratio was at most 0.25.

With AGGR, the enrichment ratio is at most 0.25.

Consider MELI, for which the enrichment ratio turned out to be 6.46.

For YYAA, the enrichment ratio was at most 0.25.

As for IRNY, the enrichment ratio is at most 0.25.

In the case of HNSL, the enrichment ratio was at most 0.25.

Regarding ARPA, the enrichment ratio is at most 0.25.

As to QQQS, the enrichment ratio is at most 0.25.

With RACC, the enrichment ratio is at most 0.25.

As for WLQP, the enrichment ratio is at most 0.25.

As for VCSQ, the enrichment ratio is at most 0.25.

GALS: the enrichment ratio came out at 5.05.

For the variant KHRD, the enrichment ratio is at most 0.25.

In the case of GTQK, the enrichment ratio is at most 0.25.

As to SFVM, the enrichment ratio is at most 0.25.

Consider SGQT, for which the enrichment ratio is 7.49.

Regarding HWYG, the enrichment ratio was at most 0.25.

As to WACI, the enrichment ratio was at most 0.25.

Regarding FWDW, the enrichment ratio is at most 0.25.

QTPL: the enrichment ratio is at most 0.25.

As to KHFW, the enrichment ratio is at most 0.25.

On to VVVC, for which the enrichment ratio was at most 0.25.

Regarding PTHR, the enrichment ratio was at most 0.25.

TSAQ: the enrichment ratio amounted to 19.6.

Consider WMCI, for which the enrichment ratio was at most 0.25.

For YRPI, the enrichment ratio is at most 0.25.

Regarding QVLW, the enrichment ratio is at most 0.25.

QMMV: the enrichment ratio is at most 0.25.

MTDQ: the enrichment ratio is at most 0.25.

In the case of YCTS, the enrichment ratio is at most 0.25.

In the case of NLPN, the enrichment ratio was at most 0.25.

As for IRLR, the enrichment ratio was at most 0.25.

Regarding LSDD, the enrichment ratio is at most 0.25.

Regarding IKPC, the enrichment ratio was at most 0.25.

Consider LGFW, for which the enrichment ratio was at most 0.25.

For the variant KACE, the enrichment ratio was at most 0.25.

For the variant EPVT, the enrichment ratio was at most 0.25.

For WNYC, the enrichment ratio was at most 0.25.

For DDFY, the enrichment ratio is at most 0.25.

As to PMHR, the enrichment ratio is at most 0.25.

Turning to IAIT, the enrichment ratio was at most 0.25.

Consider AMEF, for which the enrichment ratio was at most 0.25.

In the case of HDHK, the enrichment ratio is at most 0.25.

Regarding EICA, the enrichment ratio is at most 0.25.

For the variant QTDH, the enrichment ratio is 29.3.

Take LKWA: the enrichment ratio was at most 0.25.

As for AVYL, the enrichment ratio was at most 0.25.

For YDCG, the enrichment ratio is at most 0.25.

Regarding FGYH, the enrichment ratio was at most 0.25.

FISK: the enrichment ratio was at most 0.25.

Turning to GGHR, the enrichment ratio was at most 0.25.

With FMLA, the enrichment ratio was at most 0.25.

As for RDAQ, the enrichment ratio is at most 0.25.

Turning to HGRK, the enrichment ratio was at most 0.25.

Consider HHVQ, for which the enrichment ratio is at most 0.25.

Take MGWC: the enrichment ratio worked out at 32.1.

Take NWEY: the enrichment ratio is at most 0.25.

Regarding YKQY, the enrichment ratio was at most 0.25.

For the variant IWLT, the enrichment ratio is at most 0.25.

Regarding SFCE, the enrichment ratio is at most 0.25.

Take GKYV: the enrichment ratio is at most 0.25.

As for SCLM, the enrichment ratio was determined as 8.63.

On to FMYQ, for which the enrichment ratio was at most 0.25.

As for RFNW, the enrichment ratio was at most 0.25.

Consider KGVD, for which the enrichment ratio is at most 0.25.

NYLY: the enrichment ratio was at most 0.25.

With MLVF, the enrichment ratio was at most 0.25.

RSWH: the enrichment ratio is at most 0.25.

IKRT: the enrichment ratio was at most 0.25.

Take SHWA: the enrichment ratio is at most 0.25.

Consider QNMC, for which the enrichment ratio is at most 0.25.

As to TDGV, the enrichment ratio is at most 0.25.

Turning to HKFH, the enrichment ratio is at most 0.25.

As to LKCI, the enrichment ratio was at most 0.25.

For AITH, the enrichment ratio amounted to 4.23.

As to FGTK, the enrichment ratio is at most 0.25.

As for MQCG, the enrichment ratio is at most 0.25.

As for HCYK, the enrichment ratio was at most 0.25.

For the variant GRAF, the enrichment ratio was at most 0.25.

As to PESH, the enrichment ratio is at most 0.25.

With DDTS, the enrichment ratio is at most 0.25.

For the variant CNMF, the enrichment ratio is at most 0.25.

Take HCKR: the enrichment ratio is at most 0.25.

Regarding QPHF, the enrichment ratio is at most 0.25.

As to VVCP, the enrichment ratio was at most 0.25.

Take QGVT: the enrichment ratio is at most 0.25.

Take NQVF: the enrichment ratio is at most 0.25.

As to VSKW, the enrichment ratio was at most 0.25.

Take SVNW: the enrichment ratio is at most 0.25.

For the variant HFNK, the enrichment ratio is at most 0.25.

Take IRVG: the enrichment ratio is at most 0.25.

Regarding QGWD, the enrichment ratio was at most 0.25.

As to YGLG, the enrichment ratio was 6.55.

Turning to WEWG, the enrichment ratio was at most 0.25.

Consider YALV, for which the enrichment ratio turned out to be 11.1.

As for SGMV, the enrichment ratio turned out to be 14.3.

Take EAYC: the enrichment ratio was at most 0.25.

For YQWW, the enrichment ratio was at most 0.25.

With LNSE, the enrichment ratio was at most 0.25.

On to KTKM, for which the enrichment ratio is at most 0.25.

As to AMVI, the enrichment ratio stood at 16.3.

Turning to ESFH, the enrichment ratio was at most 0.25.

YKWP: the enrichment ratio was at most 0.25.

Take VLCD: the enrichment ratio is at most 0.25.

For SKYV, the enrichment ratio was at most 0.25.

MIVT: the enrichment ratio is at most 0.25.

Consider EDLT, for which the enrichment ratio is at most 0.25.

For the variant QADC, the enrichment ratio came out at 0.684.

Regarding QAAI, the enrichment ratio came out at 12.7.

For the variant ITIV, the enrichment ratio was at most 0.25.

For the variant TNLW, the enrichment ratio is at most 0.25.

For the variant FAIK, the enrichment ratio was at most 0.25.

For the variant CLHF, the enrichment ratio is at most 0.25.

For RGWD, the enrichment ratio is at most 0.25.

PVVR: the enrichment ratio was at most 0.25.

As to TEMT, the enrichment ratio worked out at 7.24.

Consider NRAN, for which the enrichment ratio was at most 0.25.

With PAME, the enrichment ratio was at most 0.25.

Take YMMA: the enrichment ratio is at most 0.25.

Regarding MLHI, the enrichment ratio was determined as 1.88.

For MHMN, the enrichment ratio was at most 0.25.

WAYS: the enrichment ratio is at most 0.25.

AINL: the enrichment ratio worked out at 2.56.

Take LFFL: the enrichment ratio is at most 0.25.

Regarding NYSH, the enrichment ratio is at most 0.25.

As for YRAK, the enrichment ratio is at most 0.25.

PDQK: the enrichment ratio is at most 0.25.

Regarding ILHD, the enrichment ratio is at most 0.25.

For the variant GRGR, the enrichment ratio was at most 0.25.

Turning to FWCM, the enrichment ratio is at most 0.25.

Turning to REIM, the enrichment ratio is at most 0.25.

For the variant YWMC, the enrichment ratio was at most 0.25.

Consider ILVK, for which the enrichment ratio was at most 0.25.

For the variant CITA, the enrichment ratio was found to be 12.4.

For the variant WRQA, the enrichment ratio was at most 0.25.
